“And” between values parts separate entries of the source, which are not always exact repeats. Identical values can stand only once. Screen size: about 94,000 compounds; about 6,200 (6.6%) were called active. Inconclusive results, whose numbers are uncertain, are shown with a selection of clear calls. Calls follow the shape of the dose curve; as a rule, active = well fitted inhibition curve with a large enough effect; inconclusive = small, poorly fitted or top-dose-only effect; inactive = flat fitted curve, though single readings scatter. Where the call is inconclusive, the potency comes from a doubtful curve fit.
test: Cytotoxic Profiling in HEK 293 Cell Line of Diverse Libraries Using Quantitative High-Throughput Screening; settings: HEK 293 viability, ATP luminescence (CellTiter-Glo), 48-72 h; series mostly up to 115 µM; also: nearly all actives have a fitted effect of over 60% in size
Method in brief: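 HEK 293 cells at 250 cells/well were exposed to compounds by pintool transfer for 48 or 72 hr at 37 degree Celsius, 5% CO2. Viability was read as ATP-coupled luminescence with CellTiter-Glo after 10 min at room temperature.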
Potency is read from the fitted curve at half-maximal effect; tags tell the direction and shape of the fitted curve.

| SMILES | Potency |
| --- | --- |
| CC1CCN(CC2CCCN(C(=O)c3ccncc3)CC2)CC1 (stereo not drawn) | inactive |
| c1ccc(OCCNc2nc(-c3cccnc3)nc3c2CCNCC3)cc1 | inconclusive: 12.6 µM [inhibitor, full curve, poor fit] |
| Cc1ccc(CC(=O)N2CCC(c3n[nH]c(=O)n3-c3ccc(C)cc3)CC2)cc1 | inactive |
| CCOC(=O)CCNC(=O)N1CCC(N2C(=O)C3(CCCCC3)C2c2ccccc2)CC1 (stereo not drawn) | inactive |
| Cc1ccc(C(=O)NCc2nnc3c(-c4nc(C5CC5)no4)cccn23)cc1C | inconclusive: 100 µM [inhibitor, single point] |
| O=C(NC1CC1)c1ccccc1OC1CN(Cc2cccc(C(F)(F)F)c2)C1 | active: 31.6 µM |
| C#CCNC(=O)C1CCN(Cc2ccccc2-c2ccccc2F)CC1 | inactive |
| Cc1cc(OCC(=O)c2ccc3c(c2)N(CC(=O)NCC2CCCO2)C(=O)CO3)ccc1C(C)C (stereo not drawn) | inconclusive: 89.1 µM [inhibitor, single point] |
| COc1ccc(NC(=O)N2CCc3c(C(=O)N(C)C)cccc32)cc1 | inconclusive: 22.4 µM [inhibitor, partial curve, poor fit] |
| Cc1ccc(-c2ccccc2CN2CCC(C(=O)N3CCC(c4ccccc4)CC3)CC2)cc1Cl | inconclusive: 50.1 µM [inhibitor, partial curve, poor fit] |
| COc1ccccc1CNC(=O)[C@@H]1Cc2c[nH]c3cccc(c23)[C@H](CC(C)C)N1 | active: 35.5 µM |
| COCCn1ccc2c(C3=CCOCC3)nc(-c3cccc(CO)c3)cc21 | inconclusive: 100 µM [inhibitor, partial curve] |
| COc1ccc(-c2cc3c(=O)n(CCNC(=O)c4ccc(F)cc4)ccn3n2)cc1 | inconclusive: 89.1 µM [inhibitor, single point] |
| O=C(Cc1ccccn1)N1CCCC(C(=O)N2CCCC2c2nc3ccncc3[nH]2)C1 (stereo not drawn) | inactive |
| CC(C)OCCCNc1ncnc2c1CN(C1CCCNCC1)C(=O)CN2C (stereo not drawn) | inactive |
| CC(C)c1ccc(CC(=O)N2CCCc3ncc(C(=O)NCC4CCCO4)cc32)cc1 (stereo not drawn) | inconclusive: 56.2 µM [inhibitor, full curve, poor fit] |
| COc1ccc(CN2CCCC(c3nn(-c4ccc(OC)cc4)c(=O)[nH]3)C2)cc1 (stereo not drawn) | inconclusive: 79.4 µM [inhibitor, partial curve] |
| COCCn1c(=O)c(C(=O)N2CCN([S+](=O)([O-])c3ccc(C)cc3)CC2)nc2cccnc21 | inactive |
| CC(C)(C)C(=O)N1CCC2(CNS(=O)(=O)c3cnccc3O2)C1 (stereo not drawn) | inactive |
| COc1cccc(NC(=O)CN2C(=O)NC3(CCC(C)CC3)C2=O)c1 (stereo not drawn) | inconclusive: 89.1 µM [inhibitor, single point] |
| O=C(NCc1ccccc1)Nc1cccc(-c2nnc3n2CCCC3)c1 | inconclusive: 100 µM [inhibitor, single point] |

| SMILES | Potency |
| --- | --- |
| CCOCC1(C)COc2ccc(C(=O)N(C)c3ccccc3)cc2N1 (stereo not drawn) | inconclusive: 89.1 µM [inhibitor, partial curve, poor fit] |
| O=C(c1ccccc1OCC1CCCN(C2CCCCC2)C1)N1CCCC1 (stereo not drawn) | inconclusive: 8.91 µM [inhibitor, full curve, poor fit] |
| O=C(Nc1ccccc1)NC1CCN(Cc2cccc(-c3cccs3)c2)CC1 | inconclusive: 17.8 µM [inhibitor, full curve, poor fit] and active: 20 µM |
| Cc1c(Cl)cccc1NC(=O)CN1C(=O)NC(c2ccc(Cl)cc2)C2=C1COC2=O (stereo not drawn) | inconclusive: 35.5 µM [inhibitor, partial curve, poor fit] |
| O=C1Cc2c(-c3ccccc3Oc3ccccc3)n[nH]c2CN1Cc1ccccn1 | inconclusive: 112 µM [inhibitor, single point] |
| CCc1nc2c(c(-c3ccc(O)cc3)n1)CN(Cc1ccc(F)cc1)CC2 | inconclusive: 50.1 µM [inhibitor, partial curve, poor fit] |
| O=C(Nc1ccccc1)N1CCn2c(nn(-c3ccc(C(F)(F)F)cc3)c2=O)C1 | active: 44.7 µM |
| Cc1ccc(NC(=O)Nc2ccc(C)n(CC(=O)Nc3ccc(C)cc3C)c2=O)cc1 | inactive |
| O=C(c1ccccc1)N1CCn2ncc(C(=O)N3CCOCC3)c2C1 | inconclusive: 89.1 µM [inhibitor, partial curve, poor fit] |
| COc1ccc(F)cc1-c1cccc(C(=O)NCC(=O)NC2CCCCCC2)c1 | inconclusive: 28.2 µM [inhibitor, partial curve, poor fit] |
| COc1ccc(-c2nc(C(C)C)nc3c2CCN([S+](=O)([O-])c2cccs2)CC3)cc1 | inconclusive: 22.4 µM [inhibitor, full curve, poor fit] |
| CCN1CCC2(CCC1=O)CN(Cc1cccc(Cl)c1F)CCN2C (stereo not drawn) | inactive |
| Cc1cccc(CNC(=O)C2(C)CCCCC(=O)N2)c1 (stereo not drawn) | inactive |
| CCN(Cc1ccncc1)C(=O)c1ccc2c(c1)C(O)CCCCCN2C (stereo not drawn) | inconclusive: 44.7 µM [inhibitor, partial curve, poor fit] |
| COCCNC(=O)c1ccc2nc(-c3cccc(C)n3)oc2c1 | inconclusive: 70.8 µM [inhibitor, partial curve] |
| CC(C)N1CCN(C(=O)CCC[C@@H]2[C@H]3CCCN4CCC[C@@H](CN2Cc2ccccc2)[C@@H]34)CC1 | inconclusive: 44.7 µM [inhibitor, partial curve, poor fit] |
| COc1ccc(CC(=O)N2CCC[C@H]2c2nc(-c3ccccc3Cl)no2)cc1OC | inconclusive: 50.1 µM [inhibitor, partial curve, poor fit] |
| CCCCc1cc(C[C@@H]2C[C@H](NC(=O)c3ccco3)C2(C)C)no1 | inconclusive: 63.1 µM [inhibitor, partial curve, poor fit] |
| Cc1occc1C(=O)N[C@@H]1CN(c2ncccn2)C[C@H]1CO | inactive |
| CC(=O)c1cccc(NC(=O)c2cc3c(n2C)CCN(Cc2cccc(F)c2)C3)c1 | inconclusive: 50.1 µM [inhibitor, partial curve, poor fit] |
| CCCC(=O)N1Cc2ccccc2CC2(CCN(Cc3ccccc3)CC2)C1 | inconclusive: 79.4 µM [inhibitor, partial curve] |

| SMILES | Potency |
| --- | --- |
| O=C1NCCCCCCN(C(=O)CCC2CCCC2)[C@H]2C[C@H](c3nc(Cc4ccccc4)no3)C[C@@H]12 | active: 31.6 µM |
| CC(C)c1nc2c(NC(=O)c3cccc(Br)c3)cccn2n1 | inconclusive: 79.4 µM [inhibitor, partial curve] |
| O=C(NCC1CN(C(=O)Cc2cccc(C(F)(F)F)c2)CC12CN(c1ccccc1)C2)Nc1ccccc1 (stereo not drawn) | inconclusive: 31.6 µM [inhibitor, full curve] |
| O=C(CNC(=O)c1cccc(-c2ccsc2)c1)NCc1cccc(C(F)(F)F)c1 | inconclusive: 50.1 µM [inhibitor, partial curve, poor fit] |
| COCCn1cc2c3c(cccc31)CN(C(=O)c1cccc(Cl)c1)CC2 | inconclusive: 50.1 µM [inhibitor, partial curve, poor fit] |
| Cc1ccc(C)c(S(=O)(=O)N2CCCCC2c2noc(COCC3CC3)n2)c1 (stereo not drawn) | inconclusive: 50.1 µM [inhibitor, partial curve, poor fit] |
| Cc1noc2c(N3CC[S+](=O)([O-])CC3)cc(-c3ccc(Cl)cc3)nc12 | inconclusive: 100 µM [inhibitor, partial curve, poor fit] |
| COc1ccc(N2CCN(C(=O)COc3cccc(-c4nnc5n4CCCC5)c3)CC2)cc1 | inconclusive: 89.1 µM [inhibitor, single point] |
| Cc1nnc2ccc(N3CCCN(C(=O)c4ccc(F)cc4)CC3)nn12 | inconclusive: 100 µM [inhibitor, partial curve] |
| CC(=O)N1CCC(Cc2ccc(C(=O)N(C)CCc3c(C)nn(C)c3C)cc2)CC1 | inconclusive: 50.1 µM [inhibitor, partial curve, poor fit] |
| Cc1noc(C)c1S(=O)(=O)N1CCC(N(CCC(C)C)C2CCOCC2)CC1 | inactive |
| COc1ccc(CC(=O)N2CCC[C@H]2c2nc(-c3ccc(OC)c(OC)c3)no2)cc1Cl | inconclusive: 70.8 µM [inhibitor, partial curve, poor fit] |
| Cc1ccc(C(=O)Nc2ccc3c(N4CCOCC4)ncnc3c2)cc1C | inconclusive: 11.2 µM [inhibitor, full curve] |
| Cc1cc(=O)n(CC(=O)Nc2ccc(Br)cc2F)c(N2CCC(C)CC2)n1 | inconclusive: 35.5 µM [inhibitor, partial curve, poor fit] |
| CCOc1cc(=O)n2c(c1C(=O)Nc1ccc(F)c(Cl)c1)CCCC2 | inconclusive: 35.5 µM [inhibitor, partial curve, poor fit] |
| O=C(Nc1cnc(-c2ccccc2)nc1)c1cccc(F)c1 | inactive |
| CCCCNC(=O)c1cc2n(n1)CC(c1ccc3c(c1)OCO3)OC2 (stereo not drawn) | inconclusive: 56.2 µM [inhibitor, partial curve, poor fit] |
| COCCOC1CCOC2(CCN(C(=O)Cc3cccc(OC)c3)CC2)C1 (stereo not drawn) | inconclusive: 89.1 µM [inhibitor, single point] |
| CN1CCCC2(CCN(C(=O)CCc3ccccc3O)C2)C1=O (stereo not drawn) | inactive |
| Cc1cccc(C)c1NC(=O)CN1C(=O)NC(c2ccccc2Cl)C2=C1COC2=O (stereo not drawn) | inactive |
| O=C1CN([S+](=O)([O-])c2ccc(F)cc2)CC(O)CN1Cc1cccs1 (stereo not drawn) | inconclusive: 50.1 µM [inhibitor, partial curve, poor fit] |
